Source: the supplement of paper PMC6531468
The list shows a part of the results. Values come from read counts of a selection and are noisy. Scores sum up all selected molecules that hold the word; the word was not tested alone.

Key:
Experiment in all cases: 6-mer SELEX enrichment z-score vs GST control; IMP3 is the RNA-binding protein IGF2BP3; higher = more enriched by binding
IMP3 KH1-4 = settings: construct: KH1-4 (164-579); SELEX round: R4
Experimental: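 SELEX-seq with GST-tagged IMP3 KH1-4 (Pro164-Lys579) and an N40 RNA pool, round 4. 6-mer z-score of sequence-tag enrichment normalised to the corresponding GST SELEX round; RNA k-mers written as DNA (T for U).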

IMP3 RRM1-2 = settings: construct: RRM1-2 (1-163); SELEX round: R2
Experimental: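 SELEX-seq with GST-tagged IMP3 RRM1-2 (Met1-Asn163) and an N40 RNA pool, round 2. 6-mer enrichment z-score normalised to GST SELEX. RNA written as DNA (T = U).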

IMP3 full-length = IMP3 full-length (UniProt O00425); settings: construct: FL IMP3 (1-579); SELEX round: R4
Experimental: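 SELEX-seq with GST-tagged full-length IMP3 and an N40 RNA pool, round 4. Each 6-mer is scored as an enrichment z-score of sequence tags containing it, normalised to the matching GST SELEX round. RNA written as DNA (T = U).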

IMP3 KH1-2 = settings: construct: KH1-2 (164-376); SELEX round: R4
Experimental: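 SELEX-seq with GST-tagged IMP3 KH1-2 (Pro164-Phe376) and an N40 RNA pool, round 4 (stringent 300/600 mM KCl washes). 6-mer z-score of sequence-tag enrichment normalised to the corresponding GST SELEX round; RNA k-mers written as DNA (T for U).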

IMP3 KH3-4 = settings: construct: KH3-4 (377-579); SELEX round: R4
Experimental: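 SELEX-seq with GST-tagged IMP3 KH3-4 (Pro377-Lys579) and an N40 RNA pool, round 4. 6-mer z-score of sequence-tag enrichment normalised to the corresponding GST SELEX round; RNA k-mers written as DNA (T for U).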

Chain of IMP3 KH3-4 (chain, as listed by the source): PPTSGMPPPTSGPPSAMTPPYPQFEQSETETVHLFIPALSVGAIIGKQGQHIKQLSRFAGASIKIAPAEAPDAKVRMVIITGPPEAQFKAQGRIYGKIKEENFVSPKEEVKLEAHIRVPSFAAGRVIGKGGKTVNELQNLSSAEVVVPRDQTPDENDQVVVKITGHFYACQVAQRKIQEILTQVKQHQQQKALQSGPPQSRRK
Chain of IMP3 RRM1-2 (chain, as listed by the source): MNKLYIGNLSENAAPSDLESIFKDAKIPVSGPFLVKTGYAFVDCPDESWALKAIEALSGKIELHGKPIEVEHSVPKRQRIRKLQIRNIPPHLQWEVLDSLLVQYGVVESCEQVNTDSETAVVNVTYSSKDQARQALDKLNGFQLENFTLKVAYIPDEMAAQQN
Chain of UniProt O00425 (O00425 whole entry): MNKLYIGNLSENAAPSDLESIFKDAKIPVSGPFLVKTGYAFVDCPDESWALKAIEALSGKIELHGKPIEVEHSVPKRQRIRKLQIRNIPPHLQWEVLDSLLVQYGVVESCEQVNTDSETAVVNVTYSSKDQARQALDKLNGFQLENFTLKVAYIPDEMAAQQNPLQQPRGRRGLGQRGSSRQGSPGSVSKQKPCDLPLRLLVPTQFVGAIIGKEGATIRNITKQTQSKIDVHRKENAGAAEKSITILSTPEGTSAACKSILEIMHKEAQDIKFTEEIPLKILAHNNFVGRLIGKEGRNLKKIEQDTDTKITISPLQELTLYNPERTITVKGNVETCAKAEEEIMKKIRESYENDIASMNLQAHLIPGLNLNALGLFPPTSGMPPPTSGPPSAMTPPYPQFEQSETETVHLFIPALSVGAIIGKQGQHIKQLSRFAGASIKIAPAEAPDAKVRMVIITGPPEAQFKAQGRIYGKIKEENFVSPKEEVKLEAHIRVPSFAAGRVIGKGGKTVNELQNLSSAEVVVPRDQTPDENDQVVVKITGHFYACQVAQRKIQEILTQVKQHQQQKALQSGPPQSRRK
Chain of IMP3 KH1-4 (chain, as listed by the source): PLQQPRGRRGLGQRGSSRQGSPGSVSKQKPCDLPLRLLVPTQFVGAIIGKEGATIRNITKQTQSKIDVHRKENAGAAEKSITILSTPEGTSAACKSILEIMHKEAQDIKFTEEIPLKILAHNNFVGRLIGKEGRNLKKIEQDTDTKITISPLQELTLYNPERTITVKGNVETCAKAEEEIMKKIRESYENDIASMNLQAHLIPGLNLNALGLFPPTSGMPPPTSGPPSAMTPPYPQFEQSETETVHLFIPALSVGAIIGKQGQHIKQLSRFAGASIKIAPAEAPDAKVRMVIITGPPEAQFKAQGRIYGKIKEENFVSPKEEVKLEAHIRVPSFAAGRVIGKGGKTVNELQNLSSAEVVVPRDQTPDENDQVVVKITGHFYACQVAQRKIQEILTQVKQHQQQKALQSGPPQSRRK
Chain of IMP3 KH1-2 (chain, as listed by the source): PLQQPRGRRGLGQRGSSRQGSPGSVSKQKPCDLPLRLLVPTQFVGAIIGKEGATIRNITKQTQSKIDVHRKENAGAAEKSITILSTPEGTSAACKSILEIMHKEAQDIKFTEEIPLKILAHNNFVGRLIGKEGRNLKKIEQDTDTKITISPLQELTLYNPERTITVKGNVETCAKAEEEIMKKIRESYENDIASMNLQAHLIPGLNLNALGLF

Sequence | 6-mer SELEX enrichment z-score (IMP3 KH1-4) | 6-mer SELEX enrichment z-score (IMP3 RRM1-2) | 6-mer SELEX enrichment z-score (IMP3 full-length) | 6-mer SELEX enrichment z-score (IMP3 KH1-2) | 6-mer SELEX enrichment z-score (IMP3 KH3-4)
TGGACG | -0.078 | -0.409 | -0.054 | -0.136 | -0.193
GACCAA | -1.52 | -0.661 | -1.66 | -1.45 | -1.75
AGAGCC | -1.44 | -0.896 | -0.503 | -1.27 | -1.39
GAGAGA | 0.705 | -0.913 | -0.268 | 0.58 | 0.772
CCGCAC | 0.515 | 0.34 | 0.873 | 0.792 | -0.471
CCACTG | -0.065 | -0.217 | -0.153 | 0.094 | -0.633
GGAGGT | 0.449 | 0.114 | 0.401 | 0.586 | 0.555
TGGGAC | -0.22 | 0 | -0.038 | -0.195 | -0.189
GTACCT | -1.37 | 0.058 | -0.829 | -1.22 | -1.31
TGCTAT | 0.407 | 0.192 | 0.032 | 0.493 | 0.548
ATGTTG | 0.23 | 0.096 | -0.071 | 0.04 | 0.297
GACAGT | 0.486 | -0.216 | 0.384 | 0.257 | 0.117
TTGCTG | 0.363 | 0.226 | 0.003 | 0.318 | 0.27
AACTTG | -0.85 | -0.474 | -0.814 | -0.877 | -0.757
GGAGGA | 1.25 | -0.541 | 0.395 | 1.25 | 0.993
GAAAGT | -0.326 | -0.969 | -0.751 | -0.564 | -0.158
CCGAGT | -1.98 | -0.429 | -0.937 | -1.73 | -1.75
AGTAGC | -0.446 | 0.132 | -0.166 | -0.497 | -0.337
GCTCTA | -0.065 | 0.15 | -0.018 | -0.021 | 0.049
ACCCAT | -0.817 | -0.194 | -0.526 | -0.841 | -1.38
TCTCCT | 0.49 | 0.386 | 0.024 | 0.422 | 0.121
CGGCCC | 0.84 | -0.348 | 1.45 | 0.757 | -0.001
